Measurements as given in PubChem BioAssay AID720709 (National Center for Advancing Translational Sciences (NCATS), 2013).
The campaign covered roughly 360,000 compounds. About 520 (0.14%) were called active. The inconclusive results got no clear call from the source; some entries with a clear call stand among them for comparison. The call rests on the fitted dose curve; in most records, active means well fitted inhibition curve with a large enough effect; inconclusive means small, poorly fitted or top-dose-only effect; inactive means no such curve, though single readings can be large or run the other way. Potencies beside an inconclusive call are fits to weak or partial responses and may not hold up.

Molecular target: Rap guanine nucleotide exchange factor 3 (Homo sapiens) (UniProt O95398)
Assay: qHTS for Antagonist of cAMP-regulated guanine nucleotide exchange factor 3 (EPAC1): primary screen; further: nearly all actives have a fitted effect of over 50% in size
Settings: EPAC1 GEF assay, Rap1b-BODIPY-GDP exchange fluorescence; series mostly up to 115 µM
Potency means the concentration at half of the fitted maximal effect; tags describe the fitted curve by direction and shape.

UniProt O95398, sequence (O95398 whole entry, looked up): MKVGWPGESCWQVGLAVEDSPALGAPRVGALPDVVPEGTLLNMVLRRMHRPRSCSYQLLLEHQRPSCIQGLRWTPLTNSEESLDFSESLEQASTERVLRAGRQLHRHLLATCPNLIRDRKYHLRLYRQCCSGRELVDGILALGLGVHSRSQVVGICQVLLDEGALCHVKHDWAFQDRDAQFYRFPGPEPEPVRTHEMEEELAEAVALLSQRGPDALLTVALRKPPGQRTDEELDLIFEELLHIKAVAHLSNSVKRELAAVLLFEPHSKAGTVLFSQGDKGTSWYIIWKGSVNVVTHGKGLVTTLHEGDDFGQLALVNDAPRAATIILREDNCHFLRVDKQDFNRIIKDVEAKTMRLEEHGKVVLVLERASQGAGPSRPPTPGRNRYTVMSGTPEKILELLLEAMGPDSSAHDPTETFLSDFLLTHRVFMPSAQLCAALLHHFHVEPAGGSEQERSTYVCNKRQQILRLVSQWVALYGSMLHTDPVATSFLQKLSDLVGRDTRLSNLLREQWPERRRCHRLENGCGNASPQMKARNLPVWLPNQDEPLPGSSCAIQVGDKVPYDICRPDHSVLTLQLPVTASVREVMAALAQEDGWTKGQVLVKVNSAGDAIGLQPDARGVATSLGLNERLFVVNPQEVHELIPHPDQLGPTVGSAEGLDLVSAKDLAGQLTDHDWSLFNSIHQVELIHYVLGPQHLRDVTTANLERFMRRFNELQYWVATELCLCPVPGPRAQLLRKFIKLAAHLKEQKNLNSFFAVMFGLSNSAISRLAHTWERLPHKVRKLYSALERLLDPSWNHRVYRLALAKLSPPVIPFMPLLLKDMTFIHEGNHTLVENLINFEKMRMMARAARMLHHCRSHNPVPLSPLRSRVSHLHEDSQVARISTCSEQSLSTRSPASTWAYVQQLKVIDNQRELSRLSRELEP

Potency, inactive:
O=[N+]([O-])c1ccc(-c2nc(-c3ccncc3)no2)cc1
S=c1[nH]nc(-c2c[nH]c3ccccc23)o1
CCN1CCc2c(sc(NC(=O)c3ccc(C(=O)c4ccccc4)cc3)c2C(N)=O)C1
CCc1nc2c(OCc3ccc(OC)cc3)cccn2c1N(C)C(=O)c1ccc(OC)cc1
COC(=O)CSc1nc(SC)nc2c1sc1nc(-c3ccco3)c3c(c12)CC(C)(C)OC3
COc1ccc(OC)c(NC(=O)/C=C/c2ccc(S(=O)(=O)N3CCOCC3)cc2)c1
Cc1ccc(OCCC(=O)OCC(=O)Nc2cc(C)nn2-c2ccccc2)cc1
Cc1ccc(OCC(=O)c2cc(C)n(C3CC3)c2C)c([N+](=O)[O-])n1
CCN(CC)C(=O)c1sc2nc(-c3cccs3)cc(-c3cccs3)c2c1N
COc1ccc(C2C(C#N)=C(N)OC3=C2C(=O)CC(C)(C)C3)c([N+](=O)[O-])c1OC (configuration not stated)
CC(C)(C)NC(=O)C(=O)NNC(=O)c1ccccc1Br
O=C(NCc1cccs1)c1ccc(N2CCCCC2)nc1
CC(C)C[C@H]1CNC(=S)N1C[C@H]1CCCN1C[C@H](Cc1ccccc1)N1C[C@H](CC(C)C)N(CCc2ccccc2)C1=S
Cc1cc(C)c(-c2csc(NC(=O)/C=C/c3cccs3)n2)c(C)c1

Potency, inconclusive:
COc1cccc(-n2nc(C#N)c(Cl)cc2=O)c1 11.2 µM [inhibitor, full curve, poor fit]
Cn1ccnc1SCC(=O)n1c2c(c3ccccc31)CCCC2 28.2 µM [inhibitor, full curve, poor fit]
Cc1cccc(SCC(=O)Nc2ccc3c(c2)OCCO3)c1 100 µM [inhibitor, single point]
Cc1csc(NC(=O)C2CC(=O)N(c3ccc(C)c(C)c3)C2)n1 (configuration not stated) 35.5 µM [inhibitor, single point]
COc1ccc(CCNC(=O)CSc2nc3[nH]ncc3c(=O)n2-c2ccccc2Br)cc1OC 89.1 µM [inhibitor, single point]
COCCCNC(=O)c1ccc(CS(=O)(=O)c2ccc(Br)cc2)o1 89.1 µM [inhibitor, single point]
COc1ccc(C2=NS(=O)(=O)N(C)C(C(=O)Nc3cc(C)ccc3O)=C2)cc1OC 79.4 µM [inhibitor, single point]
C[C@H](O)[C@@H]1C(=O)N2CCc3c([nH]c4ccccc34)[C@@H]2C[C@@H]1N(C)C(=O)Nc1ccccc1 112 µM [inhibitor, partial curve, poor fit]
CCCCCCCCOC(=O)c1nc(Cl)c(Cl)c(N)c1Cl 79.4 µM [inhibitor, single point]
CCOc1ccc(NS(=O)(=O)c2ccc(NS(=O)(=O)c3cccs3)cc2)cc1 8.91 µM [inhibitor, full curve, poor fit]
O=C(NC1CC1)C1CCN(c2nc3ccccc3s2)CC1 17.8 µM [inhibitor, full curve, poor fit]
CCCNC(=O)c1ccc2c(=O)c(O)c(-c3cccc(Br)c3)[nH]c2c1 28.2 µM [inhibitor, full curve, poor fit]
COc1cccc(NC(=O)C2CC(=O)N(Cc3ccc(C)cc3)C2)c1 (configuration not stated) 100 µM [inhibitor, single point]
Cn1cccc1Cc1nnc(SCC(=O)Nc2ccc3c(c2)OCO3)n1-c1ccc(F)cc1 79.4 µM [inhibitor, partial curve]
C#CCn1cc(/C=N/Nc2nc3ccccc3[nH]2)c2ccccc21 100 µM [inhibitor, single point]
Cc1ccc(N2NC(=O)/C(=C\c3cc4c(cc3[N+](=O)[O-])OCO4)C2=O)cc1C 89.1 µM [inhibitor, single point]
COc1cc(/C=N/NC(=O)c2ccncc2)ccc1OCC(=O)Nc1ccc(C)c(C)c1 89.1 µM [inhibitor, single point]
COc1cc2c(c(OC)c1OC)-c1ccc(OC)c(=O)cc1[C@@H](N(C)CC#CCO)CC2 100 µM [inhibitor, single point]
Cc1ccc(S(=O)(=O)N2CCN(C(=O)CSc3cc(C)ccc3C)CC2)c(C)c1 100 µM [inhibitor, partial curve, poor fit]
CC(C)S(=O)(=O)c1cnc(N2CCOCC2)nc1N 28.2 µM [inhibitor, partial curve]
CN1C/C(=C/c2ccsc2)C(=O)/C(=C/c2ccsc2)C1 70.8 µM [inhibitor, single point]
CC(=O)Nc1ccc(Nc2nc3ccccc3nc2NS(=O)(=O)c2ccc(Cl)c([N+](=O)[O-])c2)cc1 89.1 µM [inhibitor, single point]
COc1cc2oc(=O)cc(-c3ccc(-c4ccc(CO)cc4)cc3)c2c(OC)c1OC 15.8 µM [inhibitor, single point]
CCCC[C@@H]1C=C(C(=O)O)[C@H](c2ccc(CC)cc2)N1S(=O)(=O)c1ccc(C)cc1 79.4 µM [inhibitor, single point]
C[C@@H]1CN([C@@H](C)CO)C(=O)c2cc(Br)cnc2O[C@@H]1CN(C)C(=O)Nc1ccc(F)cc1 44.7 µM [inhibitor, single point]
Cc1ccc2[nH]c(=O)c(CN(CC3COCCO3)C(=O)Nc3ccccc3C)cc2c1 (configuration not stated) 56.2 µM [inhibitor, partial curve, poor fit]
CCN(C=NC1=NN(c2cccc(C(F)(F)F)c2)CC1)CC 100 µM [inhibitor, single point]
N/C(Cc1ccc(Cl)cc1Cl)=N\OC(=O)Cc1ccccc1 39.8 µM [inhibitor, partial curve, poor fit]
